Experimental data as given in the supplement of paper PMC11417369.
Some of the results follow.

These sequences were tested on PF3D7_0420300 AP2 domain 1 (GST-tagged) (assay: gcPBM binding intensity (ln(normalized median fluorescence intensity)); higher = stronger DNA binding).
Outline: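 GST-fused DNA-binding domains of P. falciparum, expressed in E. coli, were applied at about 25 μg on average for 1 h to an Agilent 4 × 180k array of primer-extended double-stranded 36-bp intergenic genomic probes and negative controls. Binding intensity is the highest Masliner-normalised natural-log median intensity across replicate spots of either probe orientation, measured with Alexa488 anti-GST antibody and a 488 nm scan.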

Row | Sequence | gcPBM binding intensity (ln)
1 | AAGCTTTCATAAAGATGTACTTTTTAAAAATAATCT [XGTACX_site5725] | 8.78
2 | TACAACAAGTAATGGTGTACATTATATTATGTAATA [XGTACX_site1194] | 9.15
3 | TATAACAATTTTTATGCATGCGACTATAATATTTTT [TGCATGCA_site508] | 9.28
4 | TAAGGATTGGTATAAAGTACAGGAGTAAATTGAAAA [XGTACX_site8525] | 9.24
5 | TACATATTGAATAAGACACACATATATATATATATA [CACACA_site1878] | 9.28
6 | ATATTTTTTTTTTATTGTACCCTCATAAAAGAAAAG [XGTACX_site773] | 8.9
7 | CATACACATATATATTGTACACATATATGTATGTAT [XGTACX_site4030] | 9.29
8 | TATATACACGCACATACACACAAATAAAAAAACACC [CACACA_site7578] | 9.93
9 | GTATTATTCTATAGAAGTACAGTATATTATTATTTA [XGTACX_site5073] | 9.23
10 | TGTGTTGTAATTAAAACACACATGAAAAAATTAAAA [CACACA_site51] | 9.3
11 | TAATGTATCTAAAATTGTACAAATATAAATCTAAAT [XGTACX_site1197] | 9.21
12 | CGCGCCCAGAAACACACACACACACCGATATATATA [CACACA_site5250] | 10.3
13 | ACAAAGATAAAACATAAAATATATCAAACATAAAAT [XGTACX_negctrl_site198] | 9.65
14 | AATAAATATAAATACACACCCATATAAATATAAATA [CACACA_site7264] | 9.85
15 | AAAAAAAATACATGTTGTACGGTACAAATATAAAGT [XGTACX_site2863] | 9.75
16 | AAAATAATAAAAAAAAAAAAAAAAAAAAAAAAGTAT [TGCATGCA_negctrl_site193] | 9.74
17 | ATATATCTTCTTTGCACACTTAAAGGGAAGTGATAA [CACACA_site342] | 9.1
18 | AAAAAAATAATAAAATGTACAAATAAACACATAAAG [XGTACX_site5102] | 9.69
19 | AAATAAAATAAAACAACACACACGAATGTATAAATA [CACACA_site885] | 9.99
20 | TTTATTTTATTCACTATCATAAGCAAAACTTAAACA [GTGCAC_negctrl_site287] | 8.8
21 | ATTAATAATATTACATGTACATAATATAATTGAAAA [XGTACX_site5084] | 9.25
22 | TTAGATATTATTATATGTACATATTATATGTATTAT [XGTACX_site3836] | 9.29

Row | Sequence | gcPBM binding intensity (ln)
23 | TAGTTAATATGATTATGTACATATATATATTAATTT [XGTACX_site1750] | 9.18
24 | ATTTTTTTTTTTTTTTTTTTTTTTTTTTTTGTTGTT [CACACA_negctrl_site1313] | 9.12
25 | TGTATATGAAAAAATAGTACTCATATAAATATCTTT [XGTACX_site6542] | 9.17
26 | ATAATATATTTATAAACACACAAAAAAAGTTATATA [CACACA_site6831] | 9.51
27 | TTATTTATGAAGTATACACACAATATATATATATAT [CACACA_site1248] | 9.34
28 | TTAATCCACAGACACACACACACAAAATAAAATACA [CACACA_site244] | 10.2
29 | AATATATTAAATATTACACACATACATTTAGTGTAA [CACACA_site5145] | 9.35
30 | TATATATTAAACTTTGCACACATAATTTAACTACAA [CACACA_site3440] | 9.4
31 | TTTTTTATTCCATAATATAATATGTTTTGAAATTTG [GTGCAC_negctrl_site440] | 9.08
32 | ATATACATATCAATGTAATATTATATACTTTTTTAG [CACACA_negctrl_site816] | 9.13
33 | ATATAATTATATTCCATACACACATATATTTAAAGG [CACACA_site2958] | 9.42
34 | AAAAAAATAAATAAATGTACATATATAAAACATTGT [XGTACX_site2136] | 9.42
35 | AAACGAGAACATAATAAATACATAAATAAATAAATA [GTGCAC_negctrl_site433] | 9.51
36 | AACAAATACGAACACACACACACACTAAAAAAAAAA [CACACA_site6386] | 10.2
37 | ATAATATGAAAACACACACACACACCCAAAAAAAAA [CACACA_site2011] | 10.2
38 | ATATATATTATATATATATATATATATATATATATA [CACACA_negctrl_site493] | 8.81
39 | CACATTAATTTTTGGGTGCACTTGGGAAATTTTGGT | 9.17
40 | AGGATATAATACCATACACACATTTATAAAATAACA [CACACA_site1930] | 9.75
41 | TGTAATCAAAAAAATAGTACATAAATTGTGTATACT [XGTACX_site5908] | 9.23
42 | TAATAAATAAATGACACACACACACGCAAAAAAAAA [CACACA_site7275] | 10.1
43 | AATTTGAAATATGTGGTGCAGTTATATAATATGTTT [GTGCAC_site9885] | 9.5
44 | ATATTTTCCCTTGTTTTACACACGTGCTGATATGAG [CACACA_site8672] | 9.84

Row | Sequence | gcPBM binding intensity (ln)
45 | TGTAGTCTGGAGAAAAGTACACAGTATCTGGTAACC [XGTACX_site2033] | 9.17
46 | ATATAGAATAAAACTATACACACCTATATTTAAACA [CACACA_site1902] | 9.64
47 | ATATAAAAAAATAATAAATAAATAAAAAGATTTCTT [XGTACX_negctrl_site110] | 9.22
48 | TATATTAATAAAGGTACTACACGGAAATGGAAATAT [XGTACX_site7760] | 9.82
49 | CTTGTATAGAAACACACACACACTTTCTTTTTTTAA [CACACA_site1964] | 9.87
50 | ATTCTTTATTATTCGCCACACACATATATATATATA [CACACA_site9009] | 9.91
51 | TATTGGAAAATTAGAAGTACTTTCATATATTAGACT [XGTACX_site4503] | 9.06
52 | TTTTTATTATTCCATAGTACAGAAAAAATGATATAT [XGTACX_site3431] | 8.99
53 | TAGATTTTTATGCGTGCACACATTTAAAAAAAAAAC [CACACA_site3421] | 9.27
54 | ATACCTACATACATACGTACATATATATATATAATG [XGTACX_site234] | 9.5
55 | AAATATAATAACATAACACACACATGTATTTATAGG [CACACA_site8009] | 9.8
56 | TTTTAATAAATTCAAAACATAAAAAGGAAAAAAAAA [XGTACX_negctrl_site471] | 9.13
57 | TATAATGAGAAGATATAATATATAGGGGGTAATTCT [GTGCAC_negctrl_site228] | 9.89
58 | ATATATATATATATATGTACTTATTTGTATAAATAC [XGTACX_site8031] | 9.02
59 | TTTTTTTCATAAGAAGCACACAAAAAATGATAGAGA [CACACA_site8401] | 9.22
60 | CTATTTCAATTTAGTGCACACATTTTAATTTATAAG [CACACA_site2040] | 9.36
61 | ACATACACATATACATGTACATATATATATATATAT [XGTACX_site5082] | 9.43
62 | ATTAAAACAAAATGTACACACATATCATTTAATGAC [CACACA_site6543] | 9.55
63 | TATGAAAAGATATATACACACATAATAAAGGTATAT [CACACA_site7713] | 9.74
64 | CATTATTATTAACATACACACGTGTTAAATACACCC [CACACA_site6118] | 9.5
65 | TTTTAATCTTAATTATGTACATATAAAATGTGTATA [XGTACX_site7382] | 9.05
66 | ATATATGTATTTAATACACACAAAACTTTCATTCCA [CACACA_site3531] | 9.47

Row | Sequence | gcPBM binding intensity (ln)
67 | ATATTCATTAACCACACACACAAAAAAAATAAAATT [CACACA_site3801] | 10
68 | TTTTTAGAAAGACATGCATGTAATAAAAATAAATAA [TGCATGCA_site685] | 9.04
69 | ATACATATATGCTTCTGTACACATAATTTATAAAAA [XGTACX_site7000] | 9.22
70 | CATATGTCTTGAGATCGTACGTTATTTTTTTTATTT [XGTACX_site1381] | 9.52
71 | AAGAATATTAATATAAATAAGTAAATAAATAAATAA [CACACA_negctrl_site417] | 9.33
72 | AAAAATTATATATATATATATATATATATATGTATA [GTGCAC_negctrl_site488] | 8.89
73 | TGGTAAATTTACCGTTGTACATTCATTTATAACATT [XGTACX_site8910] | 9.32
74 | TATAAATTTAAAATGACACACACTAAAATTATTTAA [CACACA_site1239] | 9.47
75 | GTATTATTATTATGCACACAAAAATATTTATACATA [CACACA_site3656] | 9.46
76 | TATATATATATATATATATATATATATATATGTATA [TGCATGCA_negctrl_site17] | 8.66
77 | TATAAAAAGCATAACACACACATGTCAATATATATA [CACACA_site1111] | 9.86
78 | ATAGAACAGAAAAGGCGTACAATAATATGTAAACAA [XGTACX_site2828] | 9.49
79 | AAAAAAAAAATATGTACACACATATATAATACATAA [CACACA_site1639] | 9.57
80 | AGAAAAGAGAAAAGTAGTACAAAGGATCATTTAAAA [XGTACX_site5294] | 9.35
81 | TTAAGTCCGTTAACAGTGCATTTTTTCTTTTATGTA [GTGCAC_site9867] | 9.41
82 | TAATGAAAAAATAAAAGAATAAATAAATAAATAAAT [TGCATGCA_negctrl_site130] | 9.4
83 | ATTAAAAAAATATAAACACACAAAAAAAAAATATAC [CACACA_site1100] | 10.1
84 | TACACGTTCTACATTTGTACTTAATTTATACATAAG [XGTACX_site1579] | 9.31
85 | TACGTCTTTTTTTTGGTGCATAATTTTTTTGTACAA | 9.4
86 | AATTTTGTTAAAAGGACACACAATTCAATATATTAA [CACACA_site647] | 9.38
87 | ATTACATGATATATCACACACACATATAGATATATA [CACACA_site7352] | 9.82
88 | GCTATTAATTTATAAGCACACAATATAAATATATAT [CACACA_site2251] | 9.15
